# Laboratory results reported in PubChem BioAssay AID602342 (Broad Institute, 2012).
# The campaign covered roughly 340,000 compounds. About 1,000 (0.29%) were called active. The shares of active, inactive and inconclusive entries below differ from those in the screen.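 How the source made its calls: active means mean replicate activation score at least 90 and every replicate individually at or above 90; inconclusive means only one of the two criteria met; inactive means neither criterion met.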
# Assay: miR-122 Renilla sensor signal increase in Huh7, primary screen, miR-122 inhibitor project, cell-based, single point, plate reader (AID 602342);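 further: higher luciferase means less miR-122 activity so hits act as miR-122 inhibitors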
# Details: Huh7 miR-122 Renilla luciferase sensor, 48 h, active compounds read high, neutral wells = 0, positive control = 100; at 12.5 µM unless noted
row,SMILES,activation (reporter increase)
1,CC(C)NC(=O)N(C)C[C@@H]1Oc2ncc(C#CC3CCCCC3)cc2C(=O)N([C@H](C)CO)C[C@H]1C,inactive: -4.03% [at 16.7 µM]
2,CN(C)c1ccnc2sc(C(N)=O)c(N)c12,inactive: 4.63%
3,Nc1ccc2ncccc2c1N,inactive: 0.908%
4,C[C@@H]1CN([C@@H](C)CO)C(=O)c2cccc(NC(=O)Nc3ccc(F)cc3)c2O[C@H]1CN(C)Cc1ccc(C(F)(F)F)cc1,inconclusive: 91.4% [at 16.7 µM]
5,O=C(/C=C/Nc1cccc([N+](=O)[O-])c1)c1cccs1,inconclusive: 92.8%
6,Cc1cc(C)cc(N(CC(=O)N2CCC(C)CC2)S(=O)(=O)c2ccccc2)c1,inconclusive: 91.5%
7,CC(C)NC(=O)N1CC[C@@H]2[C@@H](CO)N(C)c3ccc(-c4cccc(F)c4)cc3[C@@H]21,inconclusive: 98.8% [at 16.7 µM]
8,O=C(Nc1nnc(SCc2ccc(F)cc2)s1)c1cccnc1Cl,inactive: 3.09%
9,O=C(Nc1cccc([N+](=O)[O-])c1)c1ccc(CSc2ccccc2)cc1,inconclusive: 119%
10,Cc1ccc(S(=O)(=O)Nc2cccc3c2O[C@@H](CN(C)Cc2ccc(Cl)c(Cl)c2)[C@H](C)CN([C@H](C)CO)C3=O)cc1,active: 110% [at 16.7 µM]
11,CC(NC(=O)COc1ccccc1)C(=O)OCC(=O)c1cc2ccccc2o1 (centres undefined),inconclusive: 90.2%
12,COc1ccc(Br)cc1S(=O)(=O)N1CCN=C1c1ccccc1,inconclusive: 103%
13,Cc1ccc(NC(=O)/C(=C\c2cccc([N+](=O)[O-])c2)NC(=O)c2cccs2)cc1,inconclusive: 100%
14,O=C1NC(=S)S/C1=C\C=C\c1ccc([N+](=O)[O-])o1,inconclusive: 105%
15,Cc1ccc(C(=O)NCc2ccncc2)cc1S(=O)(=O)Nc1cccc(C)c1C,inconclusive: 97.1%
16,Cc1cc(=O)c2cccc(Br)c2[nH]1,inactive: 5.8%
17,Cc1ccc(NS(=O)(=O)c2ccc3c(c2)NC(=O)CO3)cc1C,inconclusive: 97.5%
18,CN1C(=O)c2cc(NC(=O)C3CC3)ccc2OC[C@H]2O[C@H](CC(=O)NCc3cccc(F)c3)CC[C@H]21,inconclusive: 117% [at 16.7 µM]
19,CC(C)CC(=O)NCCCN1CCN(CCCNC(=O)CC(C)C)CC1,inconclusive: 146%
20,C[C@@H]1CN([C@@H](C)CO)C(=O)c2cccc(NC(=O)Nc3ccccc3)c2O[C@@H]1CN(C)Cc1ccc(C(=O)Nc2ccccc2N)cc1,active: 140% [at 16.7 µM]
21,O=C(NCc1ccccn1)c1cccc(NS(=O)(=O)c2cccc(F)c2)c1,inconclusive: 103%
22,O=C(NC(NC(=S)Nc1c(Cl)cccc1Cl)C(Cl)(Cl)Cl)c1cccc([N+](=O)[O-])c1 (centres undefined),active: 174%
23,C/C=C\C(=O)Nc1cccc(C2=NOC3(C2)C[C@@H](C(N)=O)N(C(=O)CCCCC)C3)c1 (some centres undefined),inconclusive: 94.4%
24,COc1ccccc1NS(=O)(=O)c1cc(NC(=O)c2sccc2C)ccc1N1CCCC1,active: 173%
25,Cc1ccc(NS(=O)(=O)c2ccc3c(c2)NC(=O)CCS3)cc1C,inconclusive: 92.3%

row,SMILES,activation (reporter increase)
1,CN(Cc1ccccc1)S(=O)(=O)c1ccc(NC(=S)NC(=O)C2CCCCC2)cc1,active: 125%
2,O=C(Nc1ccn(-c2ccccc2)n1)c1ccccc1Br,inactive: 14.8%
3,C[C@H](CO)N1C[C@H](C)[C@@H](CN(C)Cc2ccc(C(F)(F)F)cc2)Oc2c(NC(=O)c3nc4ccccc4s3)cccc2C1=O,inconclusive: 92.5% [at 16.7 µM]
4,CN1c2ccc(-c3ccccc3)cc2[C@H]2[C@H](CCN2S(=O)(=O)c2ccccc2F)[C@H]1CO,inconclusive: 106% [at 16.7 µM]
5,O=C(Nc1cc(S(=O)(=O)N2CCOCC2)ccc1Cl)C(=O)c1c(-c2ccccc2)cc2ccccn12,active: 155%
6,CCC(=O)NC(=S)Nc1ccc(S(=O)(=O)NC2CCCCC2)cc1,inconclusive: 95.1%
7,O=S(=O)(Nc1ccc(C(O)(C(F)(F)F)C(F)(F)F)cc1)c1cccc2cccnc12,inconclusive: 105%
8,CCCC#Cc1cnc2c(c1)C(=O)N([C@H](C)CO)C[C@H](C)[C@H](CN(C)Cc1ccccc1F)O2,inconclusive: 96.4% [at 16.7 µM]
9,CC(C)C(=O)NC(=S)Nc1ccc(S(=O)(=O)Nc2ccccc2)cc1,active: 137%
10,COc1ccccc1NS(=O)(=O)c1cc(NC(=S)NCC2CCCO2)ccc1C (centres undefined),active: 99.2%
11,CCOc1cc(CNCCc2ccccc2)ccc1OCC(=O)NC(C)(C)C,inactive: -2.19%
12,Cc1ccc(S(=O)(=O)NCc2ccc3c(c2)cc(C)n3C)cc1,inactive: 0.416%
13,C[C@H]1CCCCO[C@@H](CN(C)Cc2ccncc2)[C@@H](C)CN([C@@H](C)CO)C(=O)c2cc(NC(=O)CCC(F)(F)F)ccc2O1,inactive: 2.13% [at 16.7 µM]
14,O=S(=O)(Nc1nc2c(s1)CCCC2)c1ccc(F)cc1,inconclusive: 90.2%
15,CC(C)C#Cc1ccc2c(c1)O[C@H](CN(C)C(=O)Nc1ccccc1)[C@@H](C)CN([C@@H](C)CO)S2(=O)=O,inconclusive: 101% [at 16.7 µM]
16,Cc1c(C(=O)OC2CCCC2)[nH]c2c1C(=O)CC(c1ccco1)C2 (centres undefined),inconclusive: 96.3%
17,Cc1c(C(=O)Nc2ccccn2)oc2ccccc12,active: 94.9%
18,CCCCNS(=O)(=O)c1ccc2nc(-c3cccnc3)cc(C(=O)NC(C)CC)c2c1 (centres undefined),inconclusive: 94.1%
19,O=C(NCc1ccco1)c1ccc(Cl)c(S(=O)(=O)Nc2ccccc2)c1,inconclusive: 97.6%
20,Cc1ccc(SC(C)C(=O)NCCC2=CCCCC2)cc1 (centres undefined),inconclusive: 114%
21,O=C1c2ccccc2NC(c2cccc(F)c2)N1Cc1ccco1 (centres undefined),inactive: -4.8%
22,CNC[C@@H]1Oc2ccc(NC(=O)Cn3cnnn3)cc2CC(=O)N([C@@H](C)CO)C[C@@H]1C,inactive: 0.0475% [at 16.7 µM]
23,O=C(Nc1ccc(S(=O)(=O)NCC2CCCO2)cc1)c1cccc(F)c1 (centres undefined),inconclusive: 90.6%
24,C[C@H]1CN([C@@H](C)CO)C(=O)c2cc(C#CC3CC3)cnc2O[C@H]1CN(C)C(=O)Nc1ccccc1,inactive: -8.05% [at 16.7 µM]
25,Cc1ccc(S(=O)(=O)N(C)C[C@H]2Oc3ccc(NC(=O)CCC(F)(F)F)cc3C(=O)N([C@@H](C)CO)C[C@H]2C)cc1,active: 99.9% [at 16.7 µM]

row,SMILES,activation (reporter increase)
1,O=C(C(=O)N(Cc1ccccc1)Cc1ccccc1)c1c(-c2ccccc2)[nH]c2ccccc12,active: 100%
2,COC(=O)C[C@H]1CC[C@H]2[C@H](COc3ccc(NC(=O)Nc4ccccc4C)cc3C(=O)N2C)O1,inconclusive: 117% [at 16.7 µM]
3,COc1ccc(-c2nc(SCc3ccccc3)n(S(C)(=O)=O)n2)cc1,inconclusive: 90.7%
4,O=C(Nc1nc(-c2ccccn2)cs1)C1CCCC1,inactive: 6.26%
5,Cc1nnc(NC(=O)c2ccc3ccccc3n2)s1,inactive: 15.9%
6,Cc1cc(NS(=O)(=O)c2ccccc2)cc(Cl)c1O,inconclusive: 113%
7,S=C1NCCc2ccc(Cl)cc2C1c1ccccc1 (centres undefined),inconclusive: 91.3%
8,C[C@H](CO)N1C[C@H](C)[C@@H](CN(C)C(=O)Nc2ccc(F)cc2)Oc2c(NS(=O)(=O)c3ccccc3)cccc2C1=O,active: 128% [at 16.7 µM]
9,CCOC(=O)c1c(C)[nH]c(C)c1S(=O)(=O)NCCc1ccco1,inconclusive: 90.9%
10,N/C(Cc1cccc2ccccc12)=N\OC(=O)c1ccc2c(c1)OCO2,inconclusive: 103%
11,CC(=O)N1CC(C)Sc2ccc(S(=O)(=O)NCc3ccc(F)cc3)cc21 (centres undefined),inconclusive: 91%
12,Cc1noc(C)c1NC(=O)Nc1ccc2c(c1)CC(=O)N([C@@H](C)CO)C[C@@H](C)[C@H](CN(C)Cc1ccncc1)O2,inactive: 69.4% [at 16.7 µM]
13,C[C@H]1CN([C@@H](C)CO)C(=O)c2cc(C#Cc3ccccn3)cnc2O[C@H]1CN(C)Cc1ccncc1,inactive: 0.286% [at 16.7 µM]
14,C/C=C/c1ccc([C@@H]2[C@@H](CO)N(c3nc(CC)cs3)[C@@H]2CNC(C)C)cc1,inconclusive: 91.7% [at 16.7 µM]
15,COc1ccc(S(=O)(=O)N(C)C[C@H]2Oc3ccc(NC(=O)Cc4ccccc4)cc3C(=O)N([C@H](C)CO)C[C@H]2C)cc1,inconclusive: 108% [at 16.7 µM]
16,C[C@H](CO)N1C[C@H](C)[C@H](CN(C)Cc2ccc(C(=O)Nc3ccccc3N)cc2)Oc2c(cccc2N(C)C)C1=O,inconclusive: 93.1% [at 16.7 µM]
17,CSc1ccc(/C=C(/NC(=O)c2ccccc2)C(=O)NCCCn2ccnc2)cc1,active: 113%
18,C[C@H]1CN([C@@H](C)CO)C(=O)c2cccc(NC(=O)Nc3ccc(C(F)(F)F)cc3)c2O[C@@H]1CN(C)CC1CCCCC1,inconclusive: 92.1% [at 16.7 µM]
19,CCNS(=O)(=O)c1cc(Br)ccc1OC,active: 248%
20,Cc1ccc(C(=O)NCCn2cc(SCC(=O)Nc3cc(C)on3)c3ccccc32)cc1,inactive: 6.96%
21,COc1ccc(NC(=O)C(OC(=O)Cn2cnc3c2c(=O)n(C)c(=O)n3C)c2ccccc2)cc1Cl (centres undefined),inconclusive: 91.6%
22,CC(=O)N1N=C(c2ccccc2)CC1c1cccs1 (centres undefined),inconclusive: 90.4%
23,CCOc1cc(C)c(C(C)C)cc1S(=O)(=O)NCc1ccccn1,active: 104%
24,Cc1ccccc1NS(=O)(=O)c1cc(C(=O)N2CCc3ccccc3C2)ccc1C,active: 177%
